In paper PMC11237012, “Synthesis and preliminary evaluation of novel PET probes for GSK-3 imaging” (Scientific Reports, 2024):
The source gives many values for each of these; only a part stands here.

Assay: Ex vivo biodistribution
Format: in vivo, wild-type FVB/NJ mice
Description: To further understand the pharmacokinetics of [^18F]2, ex vivo biodistribution was performed with different groups of mice with and without co-administration of 2. Animals were sacrificed at 5 min, 10 min and 120 min post-injection of [^18F]2. Vital organs and tissues were collected and uptake of the [^18F]2 was measured as SUV after counting the radioactivity in each harvested tissue. […] Additionally, observed higher uptake of [^18F]2 in pancreas could potentially be extended to beta cell mass imaging as a separate study. […] Therefore, it would be valuable to evaluate PET [^18F]2 in pathological conditions to finally evaluate its selectivity, binding affinity, and retention in vivo in the presence and absence of self-blocking as a future study.
Uptake of PET probe [^18F]2 (1.40 ± 0.61 MBq) was assessed with and without co-administration of 2 in 10–13-week-old wild-type FVB/NJ mice (The Jackson Laboratory, Bar Harbor, ME) after tail vein injection followed by PET imaging at 5 min, 10 min, 15 min, 20 min, 25 min, 30 min, 40 min, 50 min, 60 min and 120 min post injection. Additionally, ex vivo biodistribution was performed at 5 min, 10 min and 120 min post tail vein injection. To prepare [^18F]2 formulation for injection, 0.76 ± 0.48 µg (2.01 ± 1.27 nmol) of [^18F]2 was formulated in 10% ethanol/ 90% isotonic saline. For the blocking experiment, 20.21 ± 1.63 µg (53.75 ± 4.33 nmol) of 2 in DMSO was added to [^18F]2 (Am of 87.27 ± 77.26 (n = 13) GBq/µmole, having 0.46 ± 0.31 µg or 1.23 ± 0.83 nmol of nonradioactive 2 in it) in the final formulation volume of ~ 100 µL. This study had 12 wild type FVB/NJ male mice with body weight 31.8 ± 2.7 g and 10 wild type FVB/NJ female mice with body weight 27.0 ± 3.6 g at the time of imaging. All the animals were anesthetized for tail vein injection and PET imaging using an induction dose of 3% isoflurane and a maintenance dose of 2–3% isoflurane, which was administered via isoflurane vaporizer. All anesthetized animals were kept warm during imaging using a heat supported imaging chamber. For ex vivo biodistribution studies, animals were sacrificed at 5 min, 10 min and 120 min post-injection by cervical dislocation and tissues were harvested for gamma counting. For PET imaging studies, each animal underwent a 60 min dynamic PET scan (Framing Sequence: 1 × 10 s, 4 × 15 s, 8 × 30 s, 5 × 60 s, 4 × 300 s, 3 × 600 s) immediately post injection followed by 10 min static PET scan at 120 min post-injection on small animal micro-PET/X-ray system, Genesys 4 (Sofie BioSystems, Dulles, VA, USA). The PET images were reconstructed using Genesys 4 imaging software installed on the imaging system. The obtained PET images were visualized and analyzed using image analysis software, “Amide's a medical image data examiner-AMIDE”[53]. PET images were normalized to the standardized uptake value (SUV) where; SUV=ConcentrationofdoseintissueμCi/g×Weightoftheanimal(g)/Injecteddose(μCi).

## O=C(Nc1cnccc1-c1ccc([18F])cc1)c1ccnc(NC(=O)C2CC2)c1 [[^18F]2]
Brain stem, 5 min post-injection, [^18F]2 + 20 µg of 2
  SUV, Average ± SD: 0.66 ± 0.03
Brain stem, 5 min post-injection, [^18F]2 alone
  SUV, Average ± SD: 0.81 ± 0.49
Brain stem, 10 min post-injection, [^18F]2 + 20 µg of 2
  SUV, Average ± SD: 0.44 ± 0.15
Brain stem, 10 min post-injection, [^18F]2 alone
  SUV, Average ± SD: 0.34 ± 0.06
Brain stem, 120 min post-injection, [^18F]2 + 20 µg of 2
  SUV, Average ± SD: 0.22 ± 0.04
Brain stem, 120 min post-injection, [^18F]2 alone
  SUV, Average ± SD: 0.06 ± 0.03
Cecum, 5 min post-injection, [^18F]2 + 20 µg of 2
  SUV, Average ± SD: 0.73 ± 0.03
Cecum, 5 min post-injection, [^18F]2 alone
  SUV, Average ± SD: 0.54 ± 0.07
Cecum, 10 min post-injection, [^18F]2 + 20 µg of 2
  SUV, Average ± SD: 0.93 ± 0.16
Cecum, 10 min post-injection, [^18F]2 alone
  SUV, Average ± SD: 0.54 ± 0.03
Cecum, 120 min post-injection, [^18F]2 + 20 µg of 2
  SUV, Average ± SD: 1.79 ± 0.60
Cecum, 120 min post-injection, [^18F]2 alone
  SUV, Average ± SD: 4.67 ± 4.60
Cerebellum, 5 min post-injection, [^18F]2 + 20 µg of 2
  SUV, Average ± SD: 0.62 ± 0.03
Cerebellum, 5 min post-injection, [^18F]2 alone
  SUV, Average ± SD: 0.75 ± 0.49
Cerebellum, 10 min post-injection, [^18F]2 + 20 µg of 2
  SUV, Average ± SD: 0.39 ± 0.15
Cerebellum, 10 min post-injection, [^18F]2 alone
  SUV, Average ± SD: 0.30 ± 0.05
Cerebellum, 120 min post-injection, [^18F]2 + 20 µg of 2
  SUV, Average ± SD: 0.18 ± 0.03
Cerebellum, 120 min post-injection, [^18F]2 alone
  SUV, Average ± SD: 0.05 ± 0.02
Cortex, 5 min post-injection, [^18F]2 + 20 µg of 2
  SUV, Average ± SD: 0.65 ± 0.02
Cortex, 5 min post-injection, [^18F]2 alone
  SUV, Average ± SD: 0.79 ± 0.50
Cortex, 10 min post-injection, [^18F]2 + 20 µg of 2
  SUV, Average ± SD: 0.43 ± 0.10
Cortex, 10 min post-injection, [^18F]2 alone
  SUV, Average ± SD: 0.32 ± 0.07
Cortex, 120 min post-injection, [^18F]2 + 20 µg of 2
  SUV, Average ± SD: 0.19 ± 0.03
Cortex, 120 min post-injection, [^18F]2 alone
  SUV, Average ± SD: 0.05 ± 0.03
Eyes, 5 min post-injection, [^18F]2 + 20 µg of 2
  SUV, Average ± SD: 0.35 ± 0.05
Eyes, 5 min post-injection, [^18F]2 alone
  SUV, Average ± SD: 0.30 ± 0.12
Eyes, 10 min post-injection, [^18F]2 + 20 µg of 2
  SUV, Average ± SD: 0.36 ± 0.04
Eyes, 10 min post-injection, [^18F]2 alone
  SUV, Average ± SD: 0.20 ± 0.03
Eyes, 120 min post-injection, [^18F]2 + 20 µg of 2
  SUV, Average ± SD: 0.29 ± 0.09
Feces, 5 min post-injection, [^18F]2 + 20 µg of 2
  SUV, Average ± SD: 0.79 ± 0.17
Feces, 5 min post-injection, [^18F]2 alone
  SUV, Average ± SD: 0.36 ± 0.12
Feces, 10 min post-injection, [^18F]2 + 20 µg of 2
  SUV, Average ± SD: 1.06 ± 0.21
Feces, 10 min post-injection, [^18F]2 alone
  SUV, Average ± SD: 0.51 ± 0.05
Feces, 120 min post-injection, [^18F]2 + 20 µg of 2
  SUV, Average ± SD: 3.25 ± 0.96
Feces, 120 min post-injection, [^18F]2 alone
  SUV, Average ± SD: 2.77 ± 0.79
Hippocampus, 5 min post-injection, [^18F]2 + 20 µg of 2
  SUV, Average ± SD: 0.78 ± 0.06
Hippocampus, 5 min post-injection, [^18F]2 alone
  SUV, Average ± SD: 1.14 ± 0.74
Hippocampus, 10 min post-injection, [^18F]2 + 20 µg of 2
  SUV, Average ± SD: 0.45 ± 0.18
Hippocampus, 10 min post-injection, [^18F]2 alone
  SUV, Average ± SD: 0.47 ± 0.15
Hippocampus, 120 min post-injection, [^18F]2 + 20 µg of 2
  SUV, Average ± SD: 0.24 ± 0.09
Hippocampus, 120 min post-injection, [^18F]2 alone
  SUV, Average ± SD: 0.08 ± 0.05
LI (large intestine), 5 min post-injection, [^18F]2 + 20 µg of 2
  SUV, Average ± SD: 1.47 ± 0.17
LI (large intestine), 5 min post-injection, [^18F]2 alone
  SUV, Average ± SD: 1.09 ± 0.45
LI (large intestine), 10 min post-injection, [^18F]2 + 20 µg of 2
  SUV, Average ± SD: 1.48 ± 0.31
LI (large intestine), 10 min post-injection, [^18F]2 alone
  SUV, Average ± SD: 0.80 ± 0.06
LI (large intestine), 120 min post-injection, [^18F]2 + 20 µg of 2
  SUV, Average ± SD: 1.22 ± 0.63
LI (large intestine), 120 min post-injection, [^18F]2 alone
  SUV, Average ± SD: 0.57 ± 0.32
SI (small intestine), 5 min post-injection, [^18F]2 + 20 µg of 2
  SUV, Average ± SD: 3.12 ± 0.27
SI (small intestine), 5 min post-injection, [^18F]2 alone
  SUV, Average ± SD: 1.94 ± 1.12
SI (small intestine), 10 min post-injection, [^18F]2 + 20 µg of 2
  SUV, Average ± SD: 3.22 ± 0.15
SI (small intestine), 10 min post-injection, [^18F]2 alone
  SUV, Average ± SD: 3.33 ± 0.49
SI (small intestine), 120 min post-injection, [^18F]2 + 20 µg of 2
  SUV, Average ± SD: 10.72 ± 1.95
SI (small intestine), 120 min post-injection, [^18F]2 alone
  SUV, Average ± SD: 5.22 ± 0.09
Thalamus, 5 min post-injection, [^18F]2 + 20 µg of 2
  SUV, Average ± SD: 0.65 ± 0.04
Thalamus, 5 min post-injection, [^18F]2 alone
  SUV, Average ± SD: 0.84 ± 0.51
Thalamus, 10 min post-injection, [^18F]2 + 20 µg of 2
  SUV, Average ± SD: 0.44 ± 0.10
Thalamus, 10 min post-injection, [^18F]2 alone
  SUV, Average ± SD: 0.34 ± 0.07
Thalamus, 120 min post-injection, [^18F]2 + 20 µg of 2
  SUV, Average ± SD: 0.20 ± 0.04
Thalamus, 120 min post-injection, [^18F]2 alone
  SUV, Average ± SD: 0.05 ± 0.03
